Laboratory results taken from the supplement of paper PMC10369915.
This is one part of the list. Cut-off read from the data, not from the text of the source: active = 3.2 or more and inactive = the rest. The signal is at background level for most entries.

What follows are binders tested against SHP2 C-SH2 domain E139D (assay: enrichment score (SH2-bound / input frequency) (ratio); bacterial display of known human phosphotyrosine sites (pTyr-Var adds point mutants) read by sequencing; higher = stronger binding; tyrosines were phosphorylated by kinases first). Conditions: peptide library: pTyr-Var.
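Note: displayed peptides selected on beads carrying the immobilized SH2 domain, with library peptides lacking any tyrosine serving as negative controls.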

Enrichment score, inactive:
EPDSLYGCGGG [ATM_Y2019] 0.571, KFEDVYVGICL [B3GALNT1_Y269] 0.895, CRAVKYLQMVR [AVPR2_Y117_G122R] 0.759, CKQGKYLNWDA [ATM_Y54_S49C] 0.874, PAGSGYPAYLG [ATP6V1A_Y374_D371G] 0.743, ALEKTYNTYRS [B4GALNT2_Y538] 0.657, QMVGMYAFSFM [AVPR2_Y124_S126F_YF] 0.712, QMVGMYASFFM [AVPR2_Y124_S127F_YF] 0.905, RRAVKYLQMVG [AVPR2_Y117_C112R] 0.435, NSFKFYMSDDI [ATRX_Y204_C200S_YF] 0.829, WLFFRYLAIGC [ATP2A2_Y836] 0.807, VSRGRYRPQEC [B4GALT4_Y113] 0.243, SKQGKYLNWDA [ATM_Y54] 1.08, WLFFRYLPIGC [ATP2A2_Y836_A838P] 3.01, NIEPVYLNMLL [ATR_Y317] 0.925, VNQSGYTLIRK [ATP6V0A2_Y688_R685Q] 0.907, LRNIDYYRLDG [ATRX_Y2083] 1.65, KVALVYGQMNE [ATP5F1B_Y269] 0.844

What follows are binders tested against SHP2 C-SH2 domain wild-type in the same assay as above. Conditions: peptide library: pTyr-Var.

Enrichment score, inactive:
EPDSLYGCGGG [ATM_Y2019] 0.744, KFEDVYVGICL [B3GALNT1_Y269] 0.989, CRAVKYLQMVR [AVPR2_Y117_G122R] 0.885, CKQGKYLNWDA [ATM_Y54_S49C] 0.973, PAGSGYPAYLG [ATP6V1A_Y374_D371G] 0.591, ALEKTYNTYRS [B4GALNT2_Y538] 0.914, QMVGMYAFSFM [AVPR2_Y124_S126F_YF] 1.02, QMVGMYASFFM [AVPR2_Y124_S127F_YF] 1.41, RRAVKYLQMVG [AVPR2_Y117_C112R] 0.382, NSFKFYMSDDI [ATRX_Y204_C200S_YF] 0.604, WLFFRYLAIGC [ATP2A2_Y836] 1.05, VSRGRYRPQEC [B4GALT4_Y113] 0.242, SKQGKYLNWDA [ATM_Y54] 1.01, WLFFRYLPIGC [ATP2A2_Y836_A838P] 2.49, NIEPVYLNMLL [ATR_Y317] 0.873, VNQSGYTLIRK [ATP6V0A2_Y688_R685Q] 2.01, LRNIDYYRLDG [ATRX_Y2083] 3.04, KVALVYGQMNE [ATP5F1B_Y269] 0.896

The binders below were run against SHP2 N-SH2 domain L43F in the same assay as above. Conditions: peptide library: pTyr-Var.

Enrichment score, inactive:
EPDSLYGCGGG [ATM_Y2019] 0.597, KFEDVYVGICL [B3GALNT1_Y269] 0.724, CRAVKYLQMVR [AVPR2_Y117_G122R] 0.698, CKQGKYLNWDA [ATM_Y54_S49C] 0.865, PAGSGYPAYLG [ATP6V1A_Y374_D371G] 0.604, ALEKTYNTYRS [B4GALNT2_Y538] 0.748, QMVGMYAFSFM [AVPR2_Y124_S126F_YF] 1.07, QMVGMYASFFM [AVPR2_Y124_S127F_YF] 1.28, RRAVKYLQMVG [AVPR2_Y117_C112R] 0.442, NSFKFYMSDDI [ATRX_Y204_C200S_YF] 0.698, WLFFRYLAIGC [ATP2A2_Y836] 0.792, VSRGRYRPQEC [B4GALT4_Y113] 0.273, SKQGKYLNWDA [ATM_Y54] 1.06, WLFFRYLPIGC [ATP2A2_Y836_A838P] 2.4, NIEPVYLNMLL [ATR_Y317] 0.663, VNQSGYTLIRK [ATP6V0A2_Y688_R685Q] 0.649, LRNIDYYRLDG [ATRX_Y2083] 1.09, KVALVYGQMNE [ATP5F1B_Y269] 0.875

The binders below were run against SHP2 N-SH2 domain T42A in the same assay as above. Conditions: peptide library: pTyr-Var.

Enrichment score, inactive:
EPDSLYGCGGG [ATM_Y2019] 0.515, KFEDVYVGICL [B3GALNT1_Y269] 0.72, CRAVKYLQMVR [AVPR2_Y117_G122R] 1.48, CKQGKYLNWDA [ATM_Y54_S49C] 0.953, PAGSGYPAYLG [ATP6V1A_Y374_D371G] 0.501, ALEKTYNTYRS [B4GALNT2_Y538] 0.768, QMVGMYAFSFM [AVPR2_Y124_S126F_YF] 0.694, QMVGMYASFFM [AVPR2_Y124_S127F_YF] 1.24, RRAVKYLQMVG [AVPR2_Y117_C112R] 0.386, NSFKFYMSDDI [ATRX_Y204_C200S_YF] 0.674, WLFFRYLAIGC [ATP2A2_Y836] 0.522, VSRGRYRPQEC [B4GALT4_Y113] 0.214, SKQGKYLNWDA [ATM_Y54] 0.96, WLFFRYLPIGC [ATP2A2_Y836_A838P] 2.13, NIEPVYLNMLL [ATR_Y317] 0.722, VNQSGYTLIRK [ATP6V0A2_Y688_R685Q] 0.547, LRNIDYYRLDG [ATRX_Y2083] 0.674, KVALVYGQMNE [ATP5F1B_Y269] 0.764

What follows are binders tested against SHP2 N-SH2 domain T52S in the same assay as above. Conditions: peptide library: pTyr-Var.

Enrichment score, inactive:
EPDSLYGCGGG [ATM_Y2019] 0.538, KFEDVYVGICL [B3GALNT1_Y269] 0.882, CRAVKYLQMVR [AVPR2_Y117_G122R] 0.819, CKQGKYLNWDA [ATM_Y54_S49C] 1.04, PAGSGYPAYLG [ATP6V1A_Y374_D371G] 0.775, ALEKTYNTYRS [B4GALNT2_Y538] 0.655, QMVGMYAFSFM [AVPR2_Y124_S126F_YF] 0.854, QMVGMYASFFM [AVPR2_Y124_S127F_YF] 1.35, RRAVKYLQMVG [AVPR2_Y117_C112R] 0.479, NSFKFYMSDDI [ATRX_Y204_C200S_YF] 0.665, WLFFRYLAIGC [ATP2A2_Y836] 0.801, VSRGRYRPQEC [B4GALT4_Y113] 0.201, SKQGKYLNWDA [ATM_Y54] 0.952, WLFFRYLPIGC [ATP2A2_Y836_A838P] 2.78, NIEPVYLNMLL [ATR_Y317] 0.683, VNQSGYTLIRK [ATP6V0A2_Y688_R685Q] 0.567, LRNIDYYRLDG [ATRX_Y2083] 1, KVALVYGQMNE [ATP5F1B_Y269] 0.972

What follows are binders tested against SHP2 N-SH2 domain wild-type in the same assay as above. Conditions: peptide library: pTyr-Var.

Enrichment score, inactive:
EPDSLYGCGGG [ATM_Y2019] 0.636, KFEDVYVGICL [B3GALNT1_Y269] 1.04, CRAVKYLQMVR [AVPR2_Y117_G122R] 0.733, CKQGKYLNWDA [ATM_Y54_S49C] 1.06, PAGSGYPAYLG [ATP6V1A_Y374_D371G] 0.708, ALEKTYNTYRS [B4GALNT2_Y538] 0.807, QMVGMYAFSFM [AVPR2_Y124_S126F_YF] 1.01, QMVGMYASFFM [AVPR2_Y124_S127F_YF] 1.41, RRAVKYLQMVG [AVPR2_Y117_C112R] 0.341, NSFKFYMSDDI [ATRX_Y204_C200S_YF] 0.738, WLFFRYLAIGC [ATP2A2_Y836] 0.856, VSRGRYRPQEC [B4GALT4_Y113] 0.211, SKQGKYLNWDA [ATM_Y54] 1.04, WLFFRYLPIGC [ATP2A2_Y836_A838P] 2.33, NIEPVYLNMLL [ATR_Y317] 1.03, VNQSGYTLIRK [ATP6V0A2_Y688_R685Q] 0.567, LRNIDYYRLDG [ATRX_Y2083] 1.32, KVALVYGQMNE [ATP5F1B_Y269] 0.923
